About 260 (0.074%) of roughly 350,000 compounds were called active. The inconclusive results got no clear call from the source; some entries with a clear call stand among them for comparison. Calls come from the whole dose curve; as a rule, active = well fitted inhibition curve with a large enough effect; inconclusive = small, poorly fitted or top-dose-only effect; inactive = no such curve, though single readings can be large or run the other way. Where the call is inconclusive, the potency comes from a doubtful curve fit.
The compounds below were run against Ferritin light chain (Equus caballus) (UniProt P02791) (assay: qHTS Assay for Identification of Novel General Anesthetics). Conditions: apoferritin/1-aminoanthracene competitive binding, fluorescence; activity change, negative = displacement: at 77.5 µM (top of the series).
Chain of UniProt P02791 (P02791 whole entry, looked up): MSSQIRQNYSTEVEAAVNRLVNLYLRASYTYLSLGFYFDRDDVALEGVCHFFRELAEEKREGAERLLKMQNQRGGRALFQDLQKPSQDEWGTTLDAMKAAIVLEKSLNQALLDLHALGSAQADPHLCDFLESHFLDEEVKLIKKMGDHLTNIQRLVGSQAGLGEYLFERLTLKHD
Outline: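 In PBS, apoferritin at 10 uM is loaded with 1-AMA from a 50% saturated solution. After 10 min of compound exposure at ambient temperature, reduced 535 nm fluorescence indicates probe displacement.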
For `COC(=O)c1sccc1NC(=S)N1CCC(C(N)=O)CC1`, the “activity change, negative = displacement” value was inactive: -5.07%.
In the case of `CCOC(=O)c1ccc(-n2c(CN3CCC(C(N)=O)CC3)nc3ccc([N+](=O)[O-])cc3c2=O)cc1`, the Potency is reported as inconclusive: 25.1 µM [inhibitor, partial curve].
`COc1ccc(C(=O)Nn2c(SCC(=O)c3ccc(Cl)cc3)nc3ccccc3c2=O)cc1` was tested, and the Potency was inconclusive: 10 µM [inhibitor, partial curve].
For `Cc1ccc(C2=NN3C(C2)c2ccccc2OC32C(=O)Nc3ccccc32)cc1` (stereo not drawn), the Potency was inconclusive: 20 µM [inhibitor, partial curve].
For `Cc1c(NC(=O)c2ccc(OC(C)C)cc2)cccc1-c1nc2ncccc2o1`, the Potency was inconclusive: 22.4 µM [inhibitor, partial curve].
For `CCc1ccc(CNC(=O)CCSCc2ccccc2F)cc1`, the Potency was inconclusive: 35.5 µM [inhibitor, single point].
With `Cc1cccc(NC(=O)c2sccc2-n2cccc2)c1C` the Potency was inconclusive: 31.6 µM [inhibitor, partial curve].
In the case of `CC(NC(=O)c1ccco1)c1nc(-c2ccc(C(C)(C)C)cc2)no1` (stereo not drawn), the Potency is reported as inconclusive: 50.1 µM [inhibitor, single point].
For `CCCc1cc(-c2nc(-c3ccc(Cl)cc3)cs2)ccn1`, the Potency was inconclusive: 31.6 µM [inhibitor, partial curve].
`O=C(Nc1cccc(Cl)c1)NC1CC2CCC1C2` (stereo not drawn) was tested, and the Potency was inconclusive: 39.8 µM [inhibitor, single point].
`CCCCCCNS(=O)(=O)c1ccc(Cl)s1` was tested, and the Potency was inconclusive: 44.7 µM [inhibitor, single point].
For `O=C(Nc1ccccc1)C1CCCCC1`, the Potency was inconclusive: 31.6 µM [inhibitor, single point].
For `CC12CCC(C)(c3nc4ccccc4nc31)C2(C)C`, the “activity change, negative = displacement” value was inactive: -16.4%.
For `COc1ccc(C(=O)N/N=C/c2cccc3cccnc23)cc1`, the “activity change, negative = displacement” value was inactive: -16.2%.
For `COc1cc(NC(=O)Cn2c(=O)oc3cc(S(=O)(=O)N4CCCCCC4)ccc32)cc(OC)c1`, the “activity change, negative = displacement” value was inactive: -13.7%.
In the case of `C/C(=N/NC(=O)CNC(=O)/C=C/c1ccco1)c1ccc(Cl)cc1`, the Potency is reported as inconclusive: 20 µM [inhibitor, partial curve].
For `Cc1oc2ccc(O)c(CN(C)Cc3ccccc3)c2c1C(=O)Nc1cccc(C(F)(F)F)c1`, the Potency was inconclusive: 5.01 µM [inhibitor, full curve].
For `CCSc1sccc1C1C(C#N)=C(N)N(c2cccnc2)C2=C1C(=O)CC(C)(C)C2` (stereo not drawn), the “activity change, negative = displacement” value was inactive: -18.2%.
With `NS(=O)(=O)c1ccc(-c2ccc(/C=C3\C(=O)Nc4cc(Cl)ccc43)o2)cc1` the Potency was inconclusive: 12.6 µM [inhibitor, partial curve].
In the case of `COc1cccc(/C=N/NC(=O)c2ccc(OCc3cccc(Br)c3)cc2)c1`, the Potency is reported as inconclusive: 2.82 µM [inhibitor, full curve].
For `Cc1ccc(-c2ccc(=O)n(Cc3cc(C)ccc3C)n2)cc1`, the Potency was inconclusive: 28.2 µM [inhibitor, partial curve].
With `Cc1ccc(S(=O)(=O)NCc2ccccc2)s1` the Potency was inconclusive: 31.6 µM [inhibitor, partial curve].
For `c1cnc(SCCOc2ccc3c(c2)CCC3)nc1`, the Potency was inconclusive: 10 µM [inhibitor, full curve, poor fit].
In the case of `O=c1c2ccccc2nnn1COc1cccc2ccccc12`, the Potency is reported as inconclusive: 25.1 µM [inhibitor, partial curve].
With `COc1ccc(CCNC(=O)CS(=O)Cc2nc(-c3ccccc3Cl)oc2C)cc1OC` (stereo not drawn) the “activity change, negative = displacement” value was inactive: -10.2%.
In the case of `Cc1cc(NC(=O)CCC(=O)N(c2ccccc2C)C(C(=O)NC2CCCC2)c2ccccc2)no1` (stereo not drawn), the “activity change, negative = displacement” value is reported as inactive: -9.55%.
For `COC(=O)C1=C(C)N(Cc2ccccc2)C(=NCc2cccc(C(F)(F)F)c2)N[C@H]1c1cccc(F)c1`, the Potency was inconclusive: 3.16 µM [inhibitor, full curve, poor fit].
With `O=C(COc1ccc(Br)cc1)Nc1ccc(CN2CCOCC2)cc1` the Potency was inconclusive: 28.2 µM [inhibitor, partial curve].
`CCc1ccc(NC(=O)C(=O)NCCc2csc(-c3ccc(C(F)(F)F)cc3)n2)cc1` was tested, and the Potency was inconclusive: 8.91 µM [inhibitor, full curve, poor fit].
With `O=C(NC(=S)Nc1ccc(S(=O)(=O)NC2CCCCC2)cc1)c1cccs1` the “activity change, negative = displacement” value was inactive: -6.98%.
In the case of `CC(C)Oc1cccc(-c2cc(C(=O)N3CCN(c4ncccn4)CC3)c3ccccc3n2)c1`, the Potency is reported as inconclusive: 12.6 µM [inhibitor, partial curve].
For `Cc1ccc(/C=C/c2ccc(N(C)C)cc2)[n+](C)c1`, the “activity change, negative = displacement” value was inactive: 2.64%.
With `CCC(NC(=O)Nc1ncccc1C)(C(F)(F)F)C(F)(F)F` the Potency was inconclusive: 2.82 µM [inhibitor, partial curve].
With `COc1ccc(CCNC(=O)c2ccc(CNc3nc(=S)[nH]c4ccccc34)cc2)cc1OC` the “activity change, negative = displacement” value was inactive: -13%.
In the case of `O=C1COc2ccc(C(=O)COC(=O)Cc3ccc(Cl)cc3)cc2N1`, the Potency is reported as inconclusive: 20 µM [inhibitor, partial curve].
For `CC(C[N+](C)(C)C)OC(=O)C1(c2ccccc2)CCCC1` (stereo not drawn), the “activity change, negative = displacement” value was inactive: 3.18%.
In the case of `Cc1ccc(O)c(NC(=O)c2cccc(NC(=O)c3ccco3)c2)c1`, the Potency is reported as inconclusive: 50.1 µM [inhibitor, single point].
`CCOC(=O)c1cc2cc(C)ccc2[nH]1` was tested, and the Potency was inconclusive: 12.6 µM [inhibitor, partial curve].
For `CC(=O)c1ccc(C(=O)N2CCc3c([nH]c4ccccc34)C2c2ccccn2)s1` (stereo not drawn), the Potency was inconclusive: 12.6 µM [inhibitor, partial curve].
For `Cn1nnnc1SCc1c(F)cccc1F`, the Potency was inconclusive: 39.8 µM [inhibitor, single point].
With `O=c1[nH]c(SCc2cccc([N+](=O)[O-])c2)nc2[nH]ncc12` the Potency was inconclusive: 39.8 µM [inhibitor, single point].
`Cc1cccc(C)c1Nc1sc(C(=O)c2ccccc2)c(N)c1C(=O)Nc1ccc(F)cc1` was tested, and the Potency was inconclusive: 14.1 µM [inhibitor, partial curve].
In the case of `COc1cccc(Cn2cccc(NC(=O)NC3CCCCC3)c2=O)c1`, the Potency is reported as inconclusive: 35.5 µM [inhibitor, partial curve].

Source: PubChem BioAssay AID485281 (National Center for Advancing Translational Sciences (NCATS), 2010)
% is set by controls: 0 for no effect and ±100 for the full control effect; potency is the fitted concentration of half-maximal effect; tags give direction and shape of the fitted curve.
Note: nearly all actives have a fitted effect of over 20% in size.
